Some of the results follow. Single values are uncertain, as repeats are few or missing.
Experiments:
Assay in all cases: cell count relative to DMSO control; melanoma cells; higher = more viable cells
Details in all cases: library dose: low library concentration; 72 h
MZ2-MEL = test system: MZ2-MEL
MeWo = test system: MeWo
RPMI7951 = test system: RPMI7951
RVH-421 = test system: RVH-421
SkMel28 = test system: SkMel28
SkMel2 = test system: SkMel2
SkMel30 = test system: SkMel30
SkMel5 = test system: SkMel5
UACC257 = test system: UACC257
UACC62 = test system: UACC62
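Further: cell number obtained by counting DAPI-stained nuclei in high-throughput microscope images with image analysis software, screen run in 1,536-well plates.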

SMILES | cell count (MZ2-MEL) [%] | cell count (MeWo) [%] | cell count (RPMI7951) [%] | cell count (RVH-421) [%] | cell count (SkMel28) [%] | cell count (SkMel2) [%] | cell count (SkMel30) [%] | cell count (SkMel5) [%] | cell count (UACC257) [%] | cell count (UACC62) [%]
CC(C)C[C@H](NC(=O)[C@H](Cc1ccccc1)NC(=O)c1cnccn1)B(O)O [Bortezomib] + N#Cc1c(O)c2c(-c3ccc(-c4ccccc4O)cc3)csc2[nH]c1=O [A769662] (first compound 0.001 µM, partner dose 2 µM) | 82.1 | 98.6 | 78.3 | 54 | 90.4 | 104 | 84.8 | 96.3 | 66.5 | 77.5
COc1ccc(C2=N[C@@H](c3ccc(Cl)cc3)[C@@H](c3ccc(Cl)cc3)N2C(=O)N2CCNC(=O)C2)c(OC(C)C)c1 [Nutlin-3] + O=C1NC(=O)/C(=C/c2ccc(-c3ccc(F)cc3O)o2)S1 [AS252424] (first compound 0.1 µM, partner dose 1 µM) | 97.3 | 76.1 | 96.4 | 73.7 | 73.7 | 80.9 | 90.4 | 94.4 | 84.9 | 94.1
COc1ccc(C2=N[C@@H](c3ccc(Cl)cc3)[C@@H](c3ccc(Cl)cc3)N2C(=O)N2CCNC(=O)C2)c(OC(C)C)c1 [Nutlin-3] + Cn1cncc1[C@@](N)(c1ccc(Cl)cc1)c1ccc2c(c1)c(-c1cccc(Cl)c1)cc(=O)n2C [tipifarnib] (first compound 0.1 µM, partner dose 0.01 µM) | 93 | 88.7 | 93.3 | 85.2 | 67 | 80.6 | 121 | 100 | 80.6 | 72.2
CC(C)C[C@H](NC(=O)[C@H](Cc1ccccc1)NC(=O)c1cnccn1)B(O)O [Bortezomib] + OCCn1cc(-c2cnc3nnn(Cc4ccc5ncccc5c4)c3n2)cn1 [PF04217903] (first compound 0.001 µM, partner dose 1 µM) | 96.9 | 90 | 99.5 | 76.9 | 96.2 | 88.3 | 94.2 | 90.4 | 86.5 | 78
COc1ccc(C2=N[C@@H](c3ccc(Cl)cc3)[C@@H](c3ccc(Cl)cc3)N2C(=O)N2CCNC(=O)C2)c(OC(C)C)c1 [Nutlin-3] + O=C(Nc1cccc(Cl)c1)Nc1ncc(CCNc2ncnc3ccsc23)s1 [SNS314] (first compound 0.1 µM, partner dose 0.0008 µM) | 104 | 108 | 113 | 91.1 | 87.8 | 93.6 | 112 | 111 | 54.3 | 84.9
Cn1c(=O)n(-c2ccc(C(C)(C)C#N)cc2)c2c3cc(-c4cnc5ccccc5c4)ccc3ncc21 + O=C(CCCCCCC(=O)Nc1ccccc1)NO [vorinostat] (first compound 0.004 µM, partner dose 0.08 µM) | 101 | 89.1 | 97.7 | 104 | 71 | 84.5 | 104 | 90.7 | 101 | 86.1
Cc1cc(Nc2cc(N3CCN(C)CC3)nc(/C=C/c3ccccc3)n2)n[nH]1 + O=C1NC(=O)/C(=C/c2ccc(-c3ccc(F)cc3O)o2)S1 [AS252424] (first compound 0.04 µM, partner dose 1 µM) | 100 | 87.1 | 78.7 | 92.6 | 90.4 | 92.4 | 87.3 | 103 | 69.1 | 98.1
Cc1cn(-c2cc(NC(=O)c3ccc(C)c(Nc4nccc(-c5cccnc5)n4)c3)cc(C(F)(F)F)c2)cn1 [nilotinib] + c1cc(-c2cnn3cc(-c4ccc(OCCN5CCCCC5)cc4)cnc23)ccn1 [Dorsomorphin] (first compound 0.2 µM, partner dose 0.4 µM) | 94.2 | 97.6 | 91.5 | 96.1 | 95.2 | 113 | 98.7 | 84.2 | 82.1 | 110
Cc1cn(-c2cc(NC(=O)c3ccc(C)c(Nc4nccc(-c5cccnc5)n4)c3)cc(C(F)(F)F)c2)cn1 [nilotinib] + CCN(CC)CCCCNc1ncc2cc(-c3cc(OC)cc(OC)c3)c(NC(=O)NC(C)(C)C)nc2n1 [PD173074] (first compound 0.2 µM, partner dose 0.1 µM) | 105 | 99.1 | 98 | 99.1 | 88.7 | 99.5 | 101 | 98.2 | 96.2 | 104
Cc1cc(Nc2cc(N3CCN(C)CC3)nc(/C=C/c3ccccc3)n2)n[nH]1 + N#Cc1c(O)c2c(-c3ccc(-c4ccccc4O)cc3)csc2[nH]c1=O [A769662] (first compound 0.04 µM, partner dose 2 µM) | 95.7 | 100 | 109 | 116 | 96.2 | 95.7 | 102 | 87.9 | 108 | 86.3
COc1ccc(C2=N[C@@H](c3ccc(Cl)cc3)[C@@H](c3ccc(Cl)cc3)N2C(=O)N2CCNC(=O)C2)c(OC(C)C)c1 [Nutlin-3] + COc1ccc2c(c1)CCC1C2CCC2(C)C(NCCCCCCN3C(=O)C=CC3=O)CCC12 [U73122] (first compound 0.1 µM, partner dose 0.4 µM) | 99.4 | 101 | 65.5 | 56.4 | 94.5 | 93.4 | 110 | 89.1 | 96.6 | 90.9
COc1ccc(C2=N[C@@H](c3ccc(Cl)cc3)[C@@H](c3ccc(Cl)cc3)N2C(=O)N2CCNC(=O)C2)c(OC(C)C)c1 [Nutlin-3] + CN(NC(=O)CC(=O)NN(C)C(=S)c1ccccc1)C(=S)c1ccccc1 [STA4783] (first compound 0.1 µM, partner dose 0.006 µM) | 96.4 | 82.3 | 86.7 | 75.4 | 76.2 | 87.5 | 103 | 95.2 | 73.9 | 75.4
COc1ccc(C2=N[C@@H](c3ccc(Cl)cc3)[C@@H](c3ccc(Cl)cc3)N2C(=O)N2CCNC(=O)C2)c(OC(C)C)c1 [Nutlin-3] + O=C(O)c1ccc(-c2c[nH]c3ncc(-c4ccccc4)cc23)cc1C1CCCC1 [GSK650394] (first compound 0.1 µM, partner dose 0.16 µM) | 92.4 | 88.9 | 99.2 | 83 | 89.3 | 86 | 111 | 82.7 | 80.2 | 80
CC(C)C[C@H](NC(=O)[C@H](Cc1ccccc1)NC(=O)c1cnccn1)B(O)O [Bortezomib] + NCC(=O)Nc1ccc(-n2nc(C(F)(F)F)cc2-c2ccc3c(ccc4ccccc43)c2)cc1 [OSU03012] (first compound 0.001 µM, partner dose 1 µM) | 89 | 58.9 | 106 | 113 | 69.9 | 59.5 | 54.5 | 91.4 | 79.4 | 94.8
Cn1c(=O)n(-c2ccc(C(C)(C)C#N)cc2)c2c3cc(-c4cnc5ccccc5c4)ccc3ncc21 + OCCn1cc(-c2cnc3nnn(Cc4ccc5ncccc5c4)c3n2)cn1 [PF04217903] (first compound 0.004 µM, partner dose 1 µM) | 108 | 90.6 | 85.6 | 117 | 82.6 | 97.2 | 87.4 | 114 | 88.1 | 90.6
COc1ccc(C2=N[C@@H](c3ccc(Cl)cc3)[C@@H](c3ccc(Cl)cc3)N2C(=O)N2CCNC(=O)C2)c(OC(C)C)c1 [Nutlin-3] + NC(=O)Nc1cc(-c2cccc(F)c2)sc1C(=O)N[C@H]1CCCNC1 [AZD7762] (first compound 0.1 µM, partner dose 0.02 µM) | 101 | 90.8 | 98.6 | 104 | 95.8 | 118 | 84.7 | 89.2 | 86.7 | 96.4
Cc1cn(-c2cc(NC(=O)c3ccc(C)c(Nc4nccc(-c5cccnc5)n4)c3)cc(C(F)(F)F)c2)cn1 [nilotinib] + O=C(O)c1ccc(-c2c[nH]c3ncc(-c4ccccc4)cc23)cc1C1CCCC1 [GSK650394] (first compound 0.2 µM, partner dose 0.16 µM) | 105 | 101 | 97 | 109 | 87.7 | 107 | 106 | 98.4 | 82.5 | 93.6
COc1ccc(C2=N[C@@H](c3ccc(Cl)cc3)[C@@H](c3ccc(Cl)cc3)N2C(=O)N2CCNC(=O)C2)c(OC(C)C)c1 [Nutlin-3] + Oc1nc(-c2ccc(C(F)(F)F)cc2)nc2c1CSCC2 [XAV939] (first compound 0.1 µM, partner dose 2 µM) | 100 | 106 | 78.4 | 59.4 | 97.7 | 100 | 119 | 101 | 89.9 | 89.1
Cc1cn(-c2cc(NC(=O)c3ccc(C)c(Nc4nccc(-c5cccnc5)n4)c3)cc(C(F)(F)F)c2)cn1 [nilotinib] + COC(=O)c1sccc1S(=O)(=O)Nc1ccc(Nc2ccccc2)cc1OC [GSK0660] (first compound 0.2 µM, partner dose 1 µM) | 87.9 | 111 | 97.2 | 96.7 | 89.2 | 101 | 88.9 | 94.7 | 89.4 | 115

From the supplement of paper PMC4604168 (melanoma cell lines)
